Laboratory results as given in the supplement of paper PMC11417369.
This is one part of the list.

System: PfSIP2 AP2 domain 1 (GST-tagged)
Test: gcPBM binding intensity (ln(normalized median fluorescence intensity)); higher = stronger DNA binding
How it was run: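 In this array assay, P. falciparum DNA-binding domains with a GST tag, expressed in E. coli, were applied for 1 h to primer-extended double-stranded 36-bp intergenic genomic probes and negative controls on an Agilent 4 × 180k array. Bound protein was visualised with Alexa488 anti-GST antibody at 488 nm. Binding intensity is the highest Masliner-normalised natural-log median intensity across replicate spots of either probe orientation.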

Row | Sequence | gcPBM binding intensity (ln)
1 | ATGGACATCTATTGTTGTACACATTTTCCCATAACA [XGTACX_site5429] | 7.26
2 | TTTCAAAAATGAGTTACACACACACGGATATAAATA [CACACA_site7116] | 6.92
3 | GAATATAAAATATATATATATATATATATATATATA [GTGCAC_negctrl_site425] | 9.24
4 | ATATAATAAAATGACACACGCATATATATATATATA [CACACA_site2789] | 9.25
5 | TTATATTTATTTATTTGTACATATTTTTTTTTATAT [XGTACX_site1669] | 7.02
6 | TTTCTTTTTAAATATATACACACCGTGGGTACATAT [CACACA_site9102] | 7.05
7 | TCATATCTTTTGAGCACACATATATATATATAAAGG [CACACA_site3338] | 7.35
8 | ATTAATATTCTATATGCATGTGAACCATGGTATATA [TGCATGCA_site430] | 7.01
9 | ATATATATATATATATGTACTTATTTATCGTATTAT [XGTACX_site3520] | 9.31
10 | ATAAAATATTAATTTTAAATTAATCAATATATATAA [GTGCAC_negctrl_site474] | 6.7
11 | AGGCTCAAATCTAGGTGTACCATTATCGTTGTATCT [XGTACX_site4730] | 6.67
12 | ATTTTTTCTTATAATGCATGTAGAAAACCGTACAGC [TGCATGCA_site57] | 7.06
13 | TATGTGTTTATTTGGTGTACATACTAATAAATATAC [XGTACX_site1682] | 7.55
14 | CCTAAATTATATTATGCACACTTAAAAATATATTTA [CACACA_site5861] | 8.62
15 | ATTATGTATATAAATTAACACACATATGTGGTTAAT [CACACA_site9028] | 6.91
16 | ACGGGTCAATATATGCGTACTTATTTAAATAATTAA [XGTACX_site1518] | 7.01
17 | AATAATATAGATTGTACACACAAAATGGGAAAAAAA [CACACA_site1886] | 7.07
18 | ATAAATGGAAACAAAAGTACTAAAAAAAAAAAATAA [XGTACX_site1510] | 6.85
19 | TATATATGTATGTATTGTACAATTAAAAATATGTAT [XGTACX_site3990] | 7.1
20 | AAAAAAAAAAAAGATACACACAAAAATGAATATATA [CACACA_site2099] | 6.9
21 | ATATATATATATATATGTACATATATATATAATTTT [XGTACX_site4146] | 9.58
22 | ATATATATATATAACTGTACTTATATATACATTTTA [XGTACX_site8605] | 9.02
23 | ATCAAGCACCAACACACACACACACCCCCACCCACA [CACACA_site370] | 8.18
24 | TAAATAAATAAAAAAACACACATATATATATATATA [CACACA_site4029] | 9.74
